Values quoted from earlier work as cited in patent publication US11261201B2 (priority 2018, dated 2022).

Target: LeuS (Escherichia coli, UniProt P07813)
Settings: Anacor's Anti-LeuS AN3365; cited from earlier work

Chain of UniProt P07813 (P07813 whole entry): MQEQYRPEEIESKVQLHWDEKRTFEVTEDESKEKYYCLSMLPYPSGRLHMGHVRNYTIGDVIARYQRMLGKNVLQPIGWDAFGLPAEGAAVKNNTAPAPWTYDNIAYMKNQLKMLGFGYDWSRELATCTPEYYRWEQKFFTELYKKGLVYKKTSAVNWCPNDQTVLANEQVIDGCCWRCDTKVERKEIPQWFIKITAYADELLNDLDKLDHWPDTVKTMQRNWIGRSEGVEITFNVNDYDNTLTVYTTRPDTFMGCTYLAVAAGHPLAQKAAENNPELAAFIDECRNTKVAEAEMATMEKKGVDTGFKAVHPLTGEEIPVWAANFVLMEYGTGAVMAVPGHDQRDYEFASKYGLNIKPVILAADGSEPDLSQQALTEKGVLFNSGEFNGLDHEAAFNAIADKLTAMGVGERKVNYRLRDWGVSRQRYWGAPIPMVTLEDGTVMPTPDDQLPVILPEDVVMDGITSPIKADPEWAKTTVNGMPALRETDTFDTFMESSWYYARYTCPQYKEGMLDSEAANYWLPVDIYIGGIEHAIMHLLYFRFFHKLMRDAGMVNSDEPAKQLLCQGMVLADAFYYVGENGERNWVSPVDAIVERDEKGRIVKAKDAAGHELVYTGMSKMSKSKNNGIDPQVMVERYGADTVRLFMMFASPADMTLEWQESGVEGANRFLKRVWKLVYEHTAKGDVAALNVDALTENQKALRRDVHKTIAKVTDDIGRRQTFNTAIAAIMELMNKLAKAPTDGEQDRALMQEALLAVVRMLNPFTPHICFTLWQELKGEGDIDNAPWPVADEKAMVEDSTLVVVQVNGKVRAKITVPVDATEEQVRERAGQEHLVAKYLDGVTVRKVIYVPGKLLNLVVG

## NC[C@H]1OB(O)c2c(OCCCO)cccc21 [AN3365]
  outcome in clinical trials: failed in clinical trials due to a high frequency of resistance
